Data published in PubChem BioAssay (NCI).
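Tested at 5 concentrations; 48 h exposure; 96-well plates; endpoints linearly interpolated, else capped at highest concentration. GI50: concentration for 50% inhibition of growth. TGI: total growth inhibition.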

System: NCI-H322M lung
Assay: NCI anticancer screen, dose series, 48 h

SMILES	TGI [µM]	GI50 [µM]
COc1cc2c(cc1C)NC(=O)/C2=C/c1c(Cl)[nH]c2cc(C)c(OC)cc12	24.1	
Cc1cc2c3ccccc3n(C)c2c2c1C(=O)c1ccccc1C2=O	40.2	
C=CCCCCOC1C=CC(OC(C)=O)C(COC(C)=O)O1 (stereo unspecified)	> 100	
C=C1C(=O)OC2CCCCC3OC3C12 (stereo unspecified)	42.7	
N=C(N)n1ncc(Cl)c(Cl)c1=O	25	
Oc1c(C(O)(c2ccccc2)c2ccc3ccccc3c2O)ccc2ccccc12	31	
C/C(Cl)=N\OC(=O)Nc1ccc([N+](=O)[O-])cc1	> 100	
O=C(N/N=C(/COc1cccc(Cl)c1)N=Cc1ccncc1)c1ccncc1	> 100	
CN(C)C(=S)Nc1nnc(NC23CC4CC(CC(C4)C2)C3)s1	> 100	
Cc1ccc(/C=C(\C#N)n2nnc3cc(Cl)c(Cl)cc32)cc1	> 100	2.86
